Data as given in PubChem BioAssay AID686978 (National Center for Advancing Translational Sciences (NCATS), 2013).
Several values for one entry are separate records, joined by “and”; a condition that tells them apart may be missing. Identical values can stand only once. Hit rate of the full screen: of about 420,000 compounds, about 64,000 (15%) were called active. Inconclusive results, whose numbers are uncertain, are shown with a selection of clear calls. The call rests on the fitted dose curve; in most records, active means well fitted inhibition curve with a large enough effect; inconclusive means small, poorly fitted or top-dose-only effect; inactive means flat fitted curve, though single readings scatter. A potency beside an inconclusive call is a rough fit, not a confirmed value.
Potency means the concentration at half of the fitted maximal effect; tags describe the fitted curve by direction and shape.

Test: qHTS for Inhibitors of human tyrosyl-DNA phosphodiesterase 1 (TDP1): qHTS in cells in absence of CPT; further: nearly all actives have a fitted effect of over 55% in size
Conditions: DT40 Tdp1-/- hTDP1 cells, no CPT, ATP luminescence, 48 h; series mostly up to 46.2 µM
How it was run: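 No-CPT arm: Tdp1-/-;hTDP1 DT40 cells (400/well) plus compounds, incubated ≥48 hr at 37 °C. Readout CellTiter-Glo luminescence.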
In the case of `C[C@@H]1CN([C@@H](C)CO)C(=O)CCCn2cc(nn2)CO[C@H]1CN(C)C(=O)Oc1ccc2ccccc2c1`, the Potency was “inactive”.
In the case of `COc1ccc(-c2nn3c(=O)cc(CN4CCN(C(=O)COc5ccc(F)cc5)CC4)nc3s2)cc1`, the Potency was inconclusive: 4.11 µM [inhibitor, full curve].
In the case of `O=CN1CCCCC1C1CC[C@H]2CCCCN2C1` (some centres not stated), the Potency was “inactive”.
In the case of `COC(=O)C1=C(c2ccccc2)C[C@@H]2CC[C@H]1N2C(=O)NCc1cccc2ccccc12`, the Potency was inconclusive: 18.4 µM [inhibitor, single point].
For `COc1cc(Cl)ccc1Nc1ncc(C(=O)N2CCN(c3ccccc3OC)CC2)c2ccccc12`, the Potency was active: 5.8 µM.
In the case of `Cc1cc(=O)oc2cc(OCC(=O)N3CCC(C(=O)O)(c4ccccc4)CC3)ccc12`, the Potency was “inactive”.
For `CCOP(=O)(OCC)c1cc(C)c(O)c(C(C)(C)C)c1`, the Potency was inconclusive: 2.91 µM [inhibitor, partial curve].
In the case of `COc1cc2c(cc1OC)C13CCN4C=C5CCOC6CC(=O)N2C1C6C5CC43` (configuration not stated), the Potency was inconclusive: 29.1 µM [inhibitor, single point].
In the case of `CC(C)COc1ccc(Cc2c(O)[nH]c(=S)[nH]c2=O)cc1`, the Potency was “inactive”.
In the case of `CN(C)C(=O)Oc1ccnc2cc(Cl)ccc12`, the Potency was inconclusive: 23.1 µM [inhibitor, single point].
With `O=c1[nH]c(=O)n(Cc2ccc(F)cc2)c(O)c1C=NCCCO` the Potency was “inactive”.
In the case of `CCOC(=O)C(O)(c1ccc(NC(=O)Oc2ccccc2)cc1)C(F)(F)F` (configuration not stated), the Potency was inconclusive: 18.4 µM [inhibitor, single point].
With `COC1=CC=C2[C@H]3Cc4ccc(OC)c5c4[C@@]2(CCN3C)[C@H]1O5` the Potency was “inactive”.
In the case of `COc1ccccc1-n1c(/C=C/c2ccccc2)nc2ccccc2c1=O`, the Potency was active: 25.9 µM.
With `O=C(CC[N+](=O)[O-])OCC1OC(O)C(OC(=O)CC[N+](=O)[O-])[C@@H](OC(=O)CC[N+](=O)[O-])C1OC(=O)CC[N+](=O)[O-]` (some centres not stated) the Potency was active: 5.8 µM.
With `CN1C(=O)/C(=C/c2ccc(Cl)s2)C(=O)NC1=S` the Potency was active: 9.2 µM.
For `COC(=O)C1=C(c2ccccc2OCc2ccccc2)C[C@@H]2CC[C@H]1N2C(=O)NCCOc1ccccc1Cl`, the Potency was inconclusive: 29.1 µM [inhibitor, single point].
With `C[C@]12CCC3C(CC[C@H]4C[C@H](O)[C@H](O)C[C@]34C)C1CC[C@@H]2O` (some centres not stated) the Potency was inconclusive: 16.4 µM [inhibitor, single point].
With `CCC(=Nc1ccc2c(c1)CCC2)c1c(O)n(C2CCCCC2)c(=O)[nH]c1=O` the Potency was active: 18.4 µM.
In the case of `CC1(C)C(O)CC(O)[C@]2(C)C1CC(O)[C@]1(C)C2CC[C@@]2(C)C(c3ccoc3)CC3OC312` (some centres not stated), the Potency was “inactive”.
For `C=CCOc1c(Cl)cc(CNc2ccc3[nH]c(=O)[nH]c3c2)cc1OC`, the Potency was inconclusive: 29.1 µM [inhibitor, single point].
With `O=C(Cc1ccccc1)OCC(=O)c1ccc(F)cc1` the Potency was “inactive”.
For `O=P1(Nc2ccc(F)cc2)COc2ccccc2OC1`, the Potency was “inactive”.
With `O=C(Nc1ccc(Cl)c(C(F)(F)F)c1)[C@@H]1CC=C[C@@H]2CCN(Cc3ccccc3)C(=O)[C@@H]21` the Potency was inconclusive: 15.8 µM [inhibitor, single point] and inconclusive: 20.6 µM [inhibitor, single point].
In the case of `COC(=O)C1=C(c2ccc(C(C)=O)cc2)C[C@@H]2CC[C@H]1N2C(=O)N1CCCCC1`, the Potency was active: 16.4 µM.
With `Cc1nc(N2CCN(Cc3ccccc3)CC2)nc2c1C(=O)CC(C)C2` (configuration not stated) the Potency was active: 16.4 µM.
In the case of `COC(=O)C1=C(c2ccc(F)cc2OCc2ccccc2)C[C@@H]2CC[C@H]1N2C(=O)NCc1ccc(C(F)(F)F)cc1`, the Potency was inconclusive: 18.4 µM [inhibitor, single point].
In the case of `O=C(O)c1ccc(Cl)nc1`, the Potency was inconclusive: 20.6 µM [inhibitor, single point].
In the case of `O=C1CN=C(c2ccccc2)c2cc(Cl)ccc2N1Cc1ccc(Cl)cc1`, the Potency was active: 14.6 µM.
In the case of `Cc1ccsc1C(=O)C1CCCN(Cc2ccc(-n3cccn3)cc2)C1` (configuration not stated), the Potency was active: 14.6 µM.
With `Cc1cc(-c2ccc(C)c(S(=O)(=O)N3CCOc4ccc(Cl)cc43)c2)on1` the Potency was active: 13 µM.
With `Cc1nn(Cc2ccccc2Cl)c(C)c1C(=O)NC1CCCc2ccccc21` (configuration not stated) the Potency was “inactive”.
In the case of `Cc1noc(C)c1CC(=O)N1CCCC(N2CCN(c3ccccc3F)CC2)C1` (configuration not stated), the Potency was “inactive”.
In the case of `COC(=O)C1=C(c2ccc(Cl)c(C(F)(F)F)c2)C[C@@H]2CC[C@H]1N2C(=O)NCc1cc(C)oc1C(F)(F)F`, the Potency was active: 20.6 µM.
For `COc1ccc(NC(=O)c2c(C)nn(Cc3ccccc3Cl)c2Cl)cc1Cl`, the Potency was inconclusive: 14.6 µM [inhibitor, single point].
In the case of `CCc1ccc(-n2c(=O)c3sc4ccccc4c3n(CC(=O)NC3CCCC3)c2=O)cc1`, the Potency was inconclusive: 16.4 µM [inhibitor, partial curve].
In the case of `Cc1cc(N2CCNCC2)nc2ccccc12`, the Potency was inconclusive: 14.6 µM [inhibitor, partial curve].
In the case of `CC[C@@]1(C(=O)OC)N[C@H](CN(C)C(=O)Nc2ccc(C(F)(F)F)cc2)[C@@H]2C(=O)N(Cc3ccccc3)C(=O)[C@@H]21`, the Potency was inconclusive: 4.61 µM [inhibitor, partial curve].
In the case of `COc1ccc2c(c1)NP(=S)(c1ccccc1)N2` (configuration not stated), the Potency was active: 16.4 µM.
For `N#Cc1ccc(CN2Cc3ccccc3-n3nncc3C2)cc1`, the Potency was inconclusive: 16.4 µM [inhibitor, single point].
In the case of `C=CCN(CC=C)C(=O)CCN1CC1C` (configuration not stated), the Potency was inconclusive: 29.1 µM [inhibitor, partial curve, poor fit].
With `c1ccc(N2CCN(c3ncnc4c3nc3n4CCCC3)CC2)cc1` the Potency was inconclusive: 23.1 µM [inhibitor, single point].
In the case of `Cc1nnc(N2CCC(C(=O)NCc3ccc(N(C)C)cc3)CC2)c2nn(-c3ccccc3)c(C)c12`, the Potency was inconclusive: 29.1 µM [inhibitor, single point].
In the case of `CCc1ccc(OCC(=O)N2CCN(CCc3ccccn3)CC2)cc1`, the Potency was “inactive”.
For `CN[C@@H](C)Cc1ccccc1`, the Potency was “inactive”.
With `CC12C(C(=O)O)C1(c1ccccc1)C2C(=O)O` (configuration not stated) the Potency was “inactive”.
In the case of `C#C[C@]1(O)CCC2C3C(=O)C=C4C=CCC[C@]4(C)C3CC[C@@]21C` (some centres not stated), the Potency was inconclusive: 29.1 µM [inhibitor, single point].
In the case of `CC(Cc1ccccc1)NC(=O)/C=C/c1ccc(Cl)cc1` (configuration not stated), the Potency was inconclusive: 18.4 µM [inhibitor, single point].
In the case of `Cc1ccc(C(=O)Nc2ccncc2)cc1S(=O)(=O)N1CCCCC1`, the Potency was active: 18.4 µM.
With `C=CCN1CC[C@]23c4c5ccc(O)c4O[C@H]2[C@@H](O)C=C[C@H]3[C@H]1C5` the Potency was inconclusive: 11.9 µM [inhibitor, partial curve].
With `C=CCc1cc(C=C2C(=O)N(C)C(=O)N(C)C2=O)cc(OCC)c1OCc1ccccc1` the Potency was inconclusive: 29.1 µM [inhibitor, single point].
In the case of `CCCCCN1C(=O)c2ccccc2[C@@]2(C(=O)OCC)Cc3cc(OC)ccc3[C@@H]12`, the Potency was active: 4.61 µM.
For `c1cncc([C@@H]2CCCCN2)c1`, the Potency was inconclusive: 33.5 µM [inhibitor, partial curve, poor fit].
With `Cn1nnc(CC[N+](C)(C)C)n1` the Potency was “inactive”.
With `COc1ccc(CNCCc2c(C)[nH]c3ccc(OC(F)(F)F)cc23)c(OC)c1` the Potency was active: 1.84 µM.
In the case of `COc1cc(C)cc(CN2CC=C(c3ccccc3)CC2)c1O`, the Potency was inconclusive: 29.1 µM [inhibitor, single point].
For `CCCCCCC(Cl)(Cn1ccnc1)c1ccccc1` (configuration not stated), the Potency was active: 14.6 µM.
With `CCOc1ccc2nc(N3CCC(C(=O)N4CCC5(CC4)OCCO5)CC3)sc2c1` the Potency was inconclusive: 14.6 µM [inhibitor, partial curve].
For `O=[N+]([O-])c1ccc(NC2CCN(Cc3ccccc3)CC2)c2ccncc12`, the Potency was inconclusive: 14.6 µM [inhibitor, partial curve, poor fit].
For `COc1cc(C(O)CN)ccc1O` (configuration not stated), the Potency was “inactive”.
With `Cn1c(=O)cc(OCC(=O)N2CCN(C3CCCCC3)CC2)c2ccccc21` the Potency was “inactive”.
With `O=C1Nc2ccccc2C1Cc1nc2ccccc2c(=O)n1-c1ccccc1` (configuration not stated) the Potency was inconclusive: 29.1 µM [inhibitor, single point].
With `COc1ccc(NC(=S)N2Cc3ccccc3-n3nncc3C2)c(OC)c1` the Potency was active: 11.6 µM.
For `CC(NCc1ccc(Cl)cc1)C(O)c1ccccc1` (configuration not stated), the Potency was “inactive”.
For `CN(C)C1(c2nnnn2-c2ccc(Cl)cc2)CCCCC1`, the Potency was inconclusive: 18.4 µM [inhibitor, single point].
For `COCCNC(=O)c1c(N)n(CCC(C)C)c2nc3ccccc3nc12`, the Potency was active: 18.4 µM.
With `Cc1ccc2c(c1)N(CCC(=O)N1CCC3(CC1)OCCO3)C(=O)C(C)O2` (configuration not stated) the Potency was “inactive”.
With `CN(C)c1ccc(/C=C2\C(=O)NC(=O)N(CCc3ccc(F)cc3)C2=O)cc1` the Potency was “inactive”.
With `CC(C)(O)[C@@H]1[C@H]2OC(=O)[C@@H]1[C@]1(O)C[C@H]3O[C@]34C(=O)O[C@H]2[C@]14C` the Potency was “inactive”.
In the case of `C=C(C)[C@@H]1C2C(=O)O[C@H]1[C@H]1OC(=O)[C@@]34OC3C[C@]2(O)[C@@]14C` (some centres not stated), the Potency was inconclusive: 6.51 µM [inhibitor, single point].
In the case of `O=c1[nH]c2ccccc2n1C1CCN(C(c2cccs2)c2nnnn2-c2ccc3c(c2)OCCO3)CC1` (configuration not stated), the Potency was active: 2.31 µM.
With `C[C@]12CC[C@H](O)C[C@H]1CC[C@@H]1[C@@H]2CC[C@]2(C)[C@@H](c3ccc(=O)oc3)C[C@H]3O[C@]132` the Potency was active: 15 µM.
